# Some of the results follow.
# System: Pseudomonas aeruginosa PA14 dppA1-A5 penta deletion mutant
# Experiment: respiration area under curve with compound as sole nitrogen source, 24 h (OmniLog AUC (arbitrary units)); higher = more respiration / better utilisation as nitrogen source, active = 2000 or more; extreme values may be limits of the assay
# Conditions: plate: PM6
# Description: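 Biolog Phenotype MicroArray plates PM6-PM8: each di/tripeptide is the sole nitrogen source. Tetrazolium reduction was read in the OmniLog for 24 h at 37°C and summarised as area under the respiration curve (arbitrary units). Values below 2000 count as no respiration.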
row,Compound,respiration area under curve
1,CC[C@H](C)[C@H](N)C(=O)N1CCC[C@H]1C(=O)O,inactive: 3
2,C[C@H](N)C(=O)N[C@@H](Cc1ccc(O)cc1)C(=O)O,active: 5750
3,CC(C)C[C@H](N)C(=O)N[C@@H](CCCN=C(N)N)C(=O)O,active: 10300
4,CC(C)[C@H](NC(=O)[C@@H](N)CC(=O)O)C(=O)O,inactive: 901
5,C[C@H](NC(=O)CN)C(=O)O,inactive: 417
6,C[C@H](N)C(=O)N[C@H](C(=O)O)[C@@H](C)O,active: 3380
7,NC(=O)CC[C@H](NC(=O)[C@@H](N)CCC(N)=O)C(=O)O,active: 5790
8,NC(=O)CC[C@H](NC(=O)[C@@H](N)CCCN=C(N)N)C(=O)O,active: 9880

# Same assay, conditions: plate: PM7
row,Compound,respiration area under curve
1,C[C@H](NC(=O)[C@@H](N)Cc1c[nH]c2ccccc12)C(=O)O,active: 2340
2,N[C@@H](CO)C(=O)N[C@@H](Cc1ccccc1)C(=O)O,active: 2000
3,O=C(O)[C@H](Cc1ccccc1)NC(=O)[C@@H]1CCCN1,active: 3420
4,N[C@@H](Cc1ccc(O)cc1)C(=O)N[C@@H](Cc1ccc(O)cc1)C(=O)O,active: 7100
5,NC(Cc1c[nH]c2ccccc12)C(=O)NC(Cc1ccccc1)C(=O)O (configuration not stated),inactive: 704
6,N[C@@H](Cc1ccc(O)cc1)C(=O)N[C@@H](Cc1c[nH]c2ccccc12)C(=O)O,active: 4130
7,CSCC[C@H](N)C(=O)N[C@@H](CC(C)C)C(=O)O,inactive: 1440
8,NC(=O)CC[C@H](NC(=O)[C@@H]1CCCN1)C(=O)O,inactive: 1980
9,CC(C)C[C@H](NC(=O)[C@@H]1CCCN1)C(=O)O,inactive: 1330
10,N[C@@H](Cc1c[nH]c2ccccc12)C(=O)N[C@@H](Cc1c[nH]c2ccccc12)C(=O)O,inactive: 686
11,CC(C)[C@H](N)C(=O)N[C@@H](CC(=O)O)C(=O)O,inactive: 536
12,O=C(O)[C@@H]1CCCN1C(=O)[C@@H]1CCCN1,inactive: 173
13,N[C@@H](Cc1ccccc1)C(=O)N[C@@H](CO)C(=O)O,active: 3210
14,C[C@@H](O)[C@H](N)C(=O)N[C@@H](CCC(=O)O)C(=O)O,inactive: 2.14

# Same assay, conditions: plate: PM8
row,Compound,respiration area under curve
1,CC(C)[C@H](NC(=O)[C@@H](N)Cc1ccccc1)C(=O)O,active: 4780
2,CC(C)[C@H](NC(=O)[C@@H](N)Cc1ccc(O)cc1)C(=O)O,active: 5270
3,CSCC[C@H](NC(=O)[C@H](C)N)C(=O)O,inactive: 1870
4,N[C@@H](CO)C(=O)N[C@@H](CC(=O)O)C(=O)O,inactive: 0
5,CC[C@H](C)[C@H](NC(=O)CN)C(=O)O,inactive: 1870
6,CC[C@H](C)[C@H](NC(=O)[C@H](C)N)C(=O)O,inactive: 1180
7,CC(C)[C@@H](NC(=O)CN)C(=O)O,inactive: 0
8,CC[C@H](C)[C@H](N)C(=O)N[C@@H](CC(C)C)C(=O)O,active: 2510
9,NCC(=O)N[C@@H](CC(N)=O)C(=O)O,active: 13600
10,CSCC[C@H](N)C(=O)N[C@@H](Cc1ccc(O)cc1)C(=O)O,inactive: 174

# Source: the supplement of paper PMC4206461
